Measured values reported in PubChem BioAssay AID1159614 (National Center for Advancing Translational Sciences (NCATS), 2016).
In all, about 45,000 compounds went through this assay and about 65 (0.1%) were called active. Calls come from the whole dose curve; as a rule, active = well fitted activation curve with a large enough effect; inconclusive = small, poorly fitted or top-dose-only effect; inactive = no such curve, though single readings can be large or run the other way. Some of the results follow.

target: Galactocerebrosidase (Homo sapiens) (UniProt P54803); test: A Novel Cell-Based Assay to Identify Small Molecules for B -Galactocerebrosidase; conditions: 145M-Twi-hGALC-G270D cells (Twitcher mouse brain line with human GALC G270D), HMU-beta-Gal fluorescence, 48 h; series mostly up to 57.5 µM; activation: at the top concentration; note: 0% is about no effect; nearly all actives have a fitted effect of over 65% in size
Outline: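 Live 145M-Twi cells (Twitcher mouse brain-derived, GALC-null) stably expressing human GALC-G270D, with a wild-type GALC line, were compound-treated. Residual GALC activity was then read as fluorescence from 0.1 mM final HMU-β-gal at pH 5.2; higher signal means activation.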

UniProt P54803, sequence (P54803 whole entry, looked up): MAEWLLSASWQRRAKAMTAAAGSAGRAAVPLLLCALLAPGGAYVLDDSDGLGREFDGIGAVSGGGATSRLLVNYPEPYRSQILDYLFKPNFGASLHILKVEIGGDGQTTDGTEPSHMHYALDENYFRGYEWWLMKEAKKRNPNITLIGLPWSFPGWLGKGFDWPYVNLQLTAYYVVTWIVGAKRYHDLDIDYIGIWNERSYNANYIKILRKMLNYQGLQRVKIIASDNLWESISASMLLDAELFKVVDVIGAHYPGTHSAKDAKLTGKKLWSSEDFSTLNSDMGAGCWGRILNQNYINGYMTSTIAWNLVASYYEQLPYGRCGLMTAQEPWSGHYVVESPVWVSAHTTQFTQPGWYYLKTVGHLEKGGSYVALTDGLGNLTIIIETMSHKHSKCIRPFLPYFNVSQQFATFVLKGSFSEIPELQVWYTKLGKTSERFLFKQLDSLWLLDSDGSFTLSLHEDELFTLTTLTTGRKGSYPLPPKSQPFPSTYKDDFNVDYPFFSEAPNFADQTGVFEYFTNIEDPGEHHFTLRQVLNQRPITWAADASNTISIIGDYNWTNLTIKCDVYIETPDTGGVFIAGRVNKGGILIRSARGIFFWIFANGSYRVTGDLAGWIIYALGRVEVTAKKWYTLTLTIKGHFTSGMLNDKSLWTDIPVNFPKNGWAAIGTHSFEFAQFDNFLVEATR

SMILES | activation
CCN(CC)S(=O)(=O)c1ccc(NC(=O)c2nn(C)c3c2CSc2ccccc2-3)cc1 | inactive: -8.81%
CCOc1ccc(Nc2nc(N)c(C(=O)c3ccccc3Cl)s2)cc1 | inactive: -18.2%
Cc1cccc(CC(=O)NC2CC(=O)N(c3ccc4c(c3)OCCO4)C2)c1 (configuration not stated) | inactive: -15.9%
Fc1ccc(Nc2nc(SCc3cccc(F)c3)nc3ccccc23)cc1 | inactive: -8.75%
Cc1ccccc1CNC(=O)Cn1c(C)c2cnn(-c3ccccc3)c(=O)c2c1C | inactive: 1.51%
CCOC(=O)c1sc(N2C(=O)c3oc4ccccc4c(=O)c3C2c2ccc(C(C)(C)C)cc2)nc1C (configuration not stated) | inactive: -6.97%
CCCCOc1ccc(C(=O)Nc2cc(-c3ccc(C)cc3)no2)cc1 | inactive: -5.38%
CCOC(=O)COc1ccc(/C=C(\C#N)c2nc3ccc(C)cc3[nH]2)cc1OC | inactive: -14.3%
Cc1ccc2c(CC(=O)Nc3cccc(C(F)(F)F)c3)coc2c1 | inactive: -18%
CCc1nc2ccc(C(=O)NCc3ccc(OC)c(OC)c3)cc2nc1CC | inactive: -11.6%
CC1(C)Cc2c(c(N3CCOCC3)nc3sc(C(=O)Nc4ccc(Cl)cc4)c(N)c23)CO1 | inactive: -17%
Cc1cccc(NC(=O)CSc2nc(-c3cccc(C)c3)nc3c2Cc2c(CO)cnc(C)c2O3)c1 | inactive: -11.8%
Cc1ccc2c(c1)-c1onc(C(=O)N(C)c3cccc(C(F)(F)F)c3)c1CO2 | inactive: 19%
Cc1ccc(CNC(=O)c2ccc3c(c2)CCN3S(=O)(=O)c2ccccc2)cc1 | inactive: -10.6%
Cc1cccn2c3c(c(=O)nc12)C(c1cccc(F)c1)CC(=O)N3 (configuration not stated) | inactive: -4.48%
Cc1oc2ncn(CC(C)C)c(=O)c2c1C(=O)NCCc1ccc(Cl)cc1 | inactive: -9.63%
CCC(=O)N1c2ccccc2CC1C(=O)N1CCN(c2cccc(OC)c2)CC1 (configuration not stated) | inactive: -24.3%
COc1ccc(Cn2c(C(=O)O)c(CNC3CCCC3)c3ccc(C)cc32)cc1 | inactive: -4.86%
COc1ccc(CCNC(=O)c2csc3c2CCCCC3)c(OC)c1 | inactive: 17%
Cc1ccc(N(C)C(=O)CC(C)S(=O)(=O)c2ccc3c(c2)NC(=O)CO3)cc1 (configuration not stated) | inactive: -1.44%
CCc1ccc(NC(=O)Cn2ccn(-c3ccc(OC)cc3)c(=O)c2=O)cc1 | inactive: -2.26%
Cc1ccc(C)c(NC(=O)CSc2c(C)cnc3c2c(=O)n(C)c(=O)n3C)c1 | inactive: -5.56%
N[C@@H](Cc1c[nH]c2ccc(O)cc12)C(=O)O | inactive: -9.41%
CN1C[C@@H]2C[C@H]1CN2c1cc2c(cc1F)c(=O)c(C(=O)O)cn2C1CC1 | inactive: -12.4% [at 23.8 µM]
CCOc1ccc(OCC)c(NS(=O)(=O)c2c(C)[nH]c(=O)[nH]c2=O)c1 | inactive: -11.5%
O=C(Cn1cnc2nc3c(cc2c1=O)CCCC3)N1CCN(c2cccc(C(F)(F)F)c2)CC1 | inactive: -28.3%
Cc1ccc(C)c(NC(=O)Cn2ncc3c([nH]c4ccccc43)c2=O)c1 | inactive: 6.84%
